Some of the results follow.

In the assay the target is T1, OsWOX13 (Oryza sativa, UniProt Q5QMM3 1-267).
T1 sequence: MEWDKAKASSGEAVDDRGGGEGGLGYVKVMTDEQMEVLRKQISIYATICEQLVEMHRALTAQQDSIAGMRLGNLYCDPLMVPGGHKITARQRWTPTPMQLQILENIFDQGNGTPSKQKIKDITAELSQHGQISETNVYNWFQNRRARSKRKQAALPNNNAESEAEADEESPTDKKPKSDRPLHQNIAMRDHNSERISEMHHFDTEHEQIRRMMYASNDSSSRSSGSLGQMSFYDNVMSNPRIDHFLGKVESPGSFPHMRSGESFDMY
The assay is described as follows: protein-binding microarray (RPBM); PBS, 2% BSA, 51.3 ng/ul salmon testes DNA, 50 uM zinc acetate, 200 nM TF, 25 C, 1 h; high values mean tight binding. The following applies: protein: recombinant; tags: N-terminal polyhistidine and DsRed monomer fusion (pET32a); label: CyDye5-dUTP incorporated in the synthesized complementary strand; 3' TTTTT single-stranded linker to array surface; dsDNA, one strand shown. In short, it runs like this: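 Binding signal is defined as the fluorescence intensity of each feature in arbitrary units, read on an Axon 4000B scanner. Transcription factors with N-terminal polyhistidine and DsRed fusions came from E. coli BL21-CodonPlus and were purified on Ni–NTA. They were incubated at 200 nM for 1 h at 25 °C on a custom Agilent array that had been made double-stranded with Cy5-dUTP, with 50 µM zinc acetate present, and the array was washed.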
As for “ACTAATTTGCTGCAGTTGCATGGCATCCCTGTCAGTTCCTCGGAGTCACCTAGTGCAG”, the binding signal was 30300 fluorescence intensity (a.u.).

As for “GTTTATTGGCTAGCTAATAATCTAGTGCTATAATTAGCGCCGGAGTCACCTAGTGCAG”, the binding signal is 5940 fluorescence intensity (a.u.).

“CAATTTTAATTTATAGGCCGAATTCAATCCAGGAAAAGAGCGGAGTCACCTAGTGCAG”: the binding signal was 10200 fluorescence intensity (a.u.).

In the case of “TTAGACGTGATAGAGTGTAAAGTTTTACAGGATCTAAACACGGAGTCACCTAGTGCAG”, the binding signal is 6860 fluorescence intensity (a.u.).

With “CAGCAAATTAAGTCACTGTTTAGATTCCACCTTAAAATTTCGGAGTCACCTAGTGCAG”, the binding signal was 5180 fluorescence intensity (a.u.).

As for “AGTGATTTACATTTTGTGTGCACTATGATGGAATCGCTTTCGGAGTCACCTAGTGCAG”, the binding signal is 43100 fluorescence intensity (a.u.).

Consider “TAATTAATTAATTGATTGATTGATTTGAAACTGATTAATTCGGAGTCACCTAGTGCAG”, for which the binding signal was 56200 fluorescence intensity (a.u.).

“CAACTTAAACAGAACAGTAACACAAACCGTGACGAAATTGCGGAGTCACCTAGTGCAG”: the binding signal was 4880 fluorescence intensity (a.u.).

Regarding “CTGTACAAATTTGTCGAAATGACCAAAATACCCCTATGACCGGAGTCACCTAGTGCAG”, the binding signal was 4660 fluorescence intensity (a.u.).

Regarding “ATAAATTAATTTAGAATAAAATGTGACACATCCTAATACTCGGAGTCACCTAGTGCAG”, the binding signal is 34900 fluorescence intensity (a.u.).

As for “ACTAAAATTATGTAGAAGAAATGCAATACAGGTTGCCGTACGGAGTCACCTAGTGCAG”, the binding signal was 3360 fluorescence intensity (a.u.).

Consider “GATATATATTAATTAATCAAATCAATCGAAGAAAATTTCACGGAGTCACCTAGTGCAG”, for which the binding signal is 19900 fluorescence intensity (a.u.).

As to “TCCATGATTAGTCATAAGCGCTACAGTAATTCACATATGCCGGAGTCACCTAGTGCAG”, the binding signal was 30500 fluorescence intensity (a.u.).

For “ACTTCTATAACACCAAATTAATTAGTTTCATTAAATGTAACGGAGTCACCTAGTGCAG”, the binding signal is 12000 fluorescence intensity (a.u.).

Regarding “ACGCATGACTAATCAACGTCGCTACAAGGTCCGAGAACAGCGGAGTCACCTAGTGCAG”, the binding signal was 3350 fluorescence intensity (a.u.).

“TCAGGACTAACTGATCAATTAATCATTCTTAAGTAATTTTCGGAGTCACCTAGTGCAG”: the binding signal was 13000 fluorescence intensity (a.u.).

For “ACCGGGATTAATTCAATCATTCATTGTGCTTTGAAAGGGCCGGAGTCACCTAGTGCAG”, the binding signal was 37200 fluorescence intensity (a.u.).

For the sequence “TTTTCTGGTGGCAAGATGATTGAGATATACACCTTGAAGTCGGAGTCACCTAGTGCAG”, the binding signal is 7690 fluorescence intensity (a.u.).

Turning to “ATTTACAAACTCGTTAATTGATGTAAACATAAGGTTACAACGGAGTCACCTAGTGCAG”, the binding signal is 12100 fluorescence intensity (a.u.).

For the sequence “TAGATAGATAGATAGATAGATAGATAGATAGATAGTGAACCGGAGTCACCTAGTGCAG”, the binding signal is 32400 fluorescence intensity (a.u.).

On to “AATAATTAAGCTGTTAGCCCACTAAAGGATGGGCCGTTTGCGGAGTCACCTAGTGCAG”, for which the binding signal was 14400 fluorescence intensity (a.u.).

Turning to “AAACTGACATGATCCGATCAACATGATATATAGGCTAGCCCGGAGTCACCTAGTGCAG”, the binding signal was 3200 fluorescence intensity (a.u.).

With “AATAATGAAAACTCAATCAATCATGCGTTAATACCATCTCCGGAGTCACCTAGTGCAG”, the binding signal is 16200 fluorescence intensity (a.u.).

On to “CAAAACAGACGAACAGGTTGAGGAGTGTCATATTCTGGTGCGGAGTCACCTAGTGCAG”, for which the binding signal was 3370 fluorescence intensity (a.u.).

On to “CTTTTGAGTCTAATTACGCCATGATTTGGCAATGTGGTGCCGGAGTCACCTAGTGCAG”, for which the binding signal is 16800 fluorescence intensity (a.u.).

Turning to “ATATTAACAGCTCATAAATTTATGAAAACATGTTGATTCGCGGAGTCACCTAGTGCAG”, the binding signal was 19200 fluorescence intensity (a.u.).

In the case of “CCGATAATTAATGAGTTCACGTGCATCAACAATGCTCTACCGGAGTCACCTAGTGCAG”, the binding signal was 25900 fluorescence intensity (a.u.).

As to “TATCAATCAAATCGATAATCTTTGAGCAATTCTCTGTTTTCGGAGTCACCTAGTGCAG”, the binding signal was 36600 fluorescence intensity (a.u.).

“CATAACTTACTATTAATTGTATGGAAAATATTAATGTTTGCGGAGTCACCTAGTGCAG”: the binding signal is 23800 fluorescence intensity (a.u.).

As to “CCGTACTTAATTATTACAATGATTCCACGCTAATTTAGAACGGAGTCACCTAGTGCAG”, the binding signal was 30200 fluorescence intensity (a.u.).

With “AAATAATCATGTACAATCTTGTTGTTGGTAAATAGTAACTCGGAGTCACCTAGTGCAG”, the binding signal was 6690 fluorescence intensity (a.u.).

“CAGTAACTGTAATAGTGATAACATTATGGTGGAGGATCCTCGGAGTCACCTAGTGCAG”: the binding signal was 3650 fluorescence intensity (a.u.).

“TTGAATTTAATAAAATAATTTGTTGTAGTAGATGTTGCTACGGAGTCACCTAGTGCAG”: the binding signal is 7560 fluorescence intensity (a.u.).

Take “CGGTCATGGATTTGAATCAATCAGTCATTCGCTGTAGTGCCGGAGTCACCTAGTGCAG”: the binding signal is 14100 fluorescence intensity (a.u.).

On to “ACACGCAATCAAAATGCTTACAAATCAAACCGCCTCTCGACGGAGTCACCTAGTGCAG”, for which the binding signal is 6480 fluorescence intensity (a.u.).

On to “CCCTAAGTGGGTCAATTAAGACCAATTGGGCTTTACAATTCGGAGTCACCTAGTGCAG”, for which the binding signal is 10100 fluorescence intensity (a.u.).

On to “ATTTGTATTGATTACCACCATCTATATCTATATCTATACTCGGAGTCACCTAGTGCAG”, for which the binding signal is 3180 fluorescence intensity (a.u.).

As to “TGAATAATTCAATTATTTTAGGTAAAGCAAACATCGTAAGCGGAGTCACCTAGTGCAG”, the binding signal is 7780 fluorescence intensity (a.u.).

For the sequence “CTCGTTTAATAGATTGCCGGATATGCCTCCGAAAAGCTAACGGAGTCACCTAGTGCAG”, the binding signal is 18000 fluorescence intensity (a.u.).

In the case of “CGTTCTCAATCAATCATTCCATACTCGCTATCCCCTCCATCGGAGTCACCTAGTGCAG”, the binding signal is 33700 fluorescence intensity (a.u.).

As for “TCCGGTAATTTCTCCACCCCTTCTCTTGGCCTATAAATTGCGGAGTCACCTAGTGCAG”, the binding signal was 8770 fluorescence intensity (a.u.).

For “GCCCTACACAATTTAATTACGTTGACACTGGCCGGTCTTACGGAGTCACCTAGTGCAG”, the binding signal is 7560 fluorescence intensity (a.u.).

For the origin of these results see paper PMC7819943, “Rice protein-binding microarrays: a tool to detect cis-acting elements near promoter regions in rice”.
